This experiment deals with NCI-H322M lung. The experiment is described as follows: NCI anticancer screen, dose series, 48 h.

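How tested: cells in 96-well plates exposed to compound for 48 hours at five concentrations. GI50 = concentration required for 50% inhibition of growth. At the TGI there is no net growth.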

In the case of `Cc1cc(/N=C/c2ccc(Cl)cc2)n(-c2ccccc2)n1`, the TGI was over 100 µM.
The same measure, in the same setting: as for `Clc1cccc2[nH]ncc12`, the figure is over 100 µM.
Turning to `N#Cc1cccc(C2C3=C(COC3=O)N(CCO)c3cc4c(cc32)CCC4)c1` (stereo not drawn), the GI50 was 0.274 µM and the TGI was over 50 µM.
Taken in the same sequence, the figures for `Cc1cc(-c2ccco2)cc(C)c1/C=C/c1cncc(-c2nn[nH]n2)c1` were over 25 µM and over 25 µM.
`O=C1c2ccccc2/C=C\C(c2ccccc2)=N/N1c1ccccc1Cl` yielded a TGI of over 100 µM.
On the same count and under the same terms, as for `CC(=O)Oc1ccc2cc(Oc3ccccc3)c(=O)oc2c1`, the figure is over 100 µM; as for `COc1cccc(/C=N/[N-]C(N)=O)c1[O-].[OH3+].[Pd+2]`, over 100 µM; as for `CCCCOCCOCCOC1=C(Cl)C(=O)c2c(O)ccc(O)c2C1=O`, 3.02 µM.
The same measure, in the same setting: the same measure for `COc1cccc(/C=C2/S/C(=N/Nc3nc(C)c(C(C)=O)s3)NC2=O)c1O`: over 100 µM; for `Cc1cc(NS(=O)(=O)c2ccc(NC(=O)c3ccc4nc5ccccc5c(Nc5ccc(S(=O)(=O)Nc6cc(C)on6)cc5)c4c3)cc2)no1`: over 50 µM.
In turn, `COc1cccc(N2C(=O)C3CC(CC(C)(C)C)c4c([nH]c5ccccc45)C3C2=O)c1` (stereo not drawn) registered a TGI of over 10 µM.
As to `CCOc1cc(/C=C/C(=O)CC(=O)/C=C/c2ccc(OC(=O)CNCCN(CC)CC)c(OCC)c2)ccc1OC(=O)CNCCN(CC)CC`, the GI50 was 3.05 µM and the TGI stood at 8.35 µM.
`CC1=CC(=O)c2c(O)c3c(c(O)c2C1=O)C1C(O)C(C3=O)C23C(=O)c4c(O)c(C)cc(O)c4C(O)=C2C(=O)CC(O)C13` (stereo not drawn) yielded a TGI of 5.57 µM.
Consider `CN(C)c1ccc2c(c1)OC(N)=C(C#N)C2c1ccc2c(c1)CCCN2C` (stereo not drawn), for which the GI50 was 28.1 µM and the TGI was over 100 µM.
`CC(=O)N1c2ccccc2[C@H]2CCc3c([nH]c4ccccc34)[C@H]21` returned a TGI of 32 µM.
Still for that read-out and setting: the same measure for `O=C(NN1C(=O)C(Cl)C1c1c(O)ccc2ccccc12)c1ccccc1O` (stereo not drawn): over 100 µM.
Take `CN(C)CCS(=O)(=O)Nc1cc(-c2ccc3ncnc(Nc4ccc(F)c(Cl)c4)c3c2)cnc1Cl`: the GI50 was 0.192 µM and the TGI came out at 1.25 µM.
`Cn1cc(NC(=O)c2cc(NC(=O)CCCCCCCC(=O)Nc3cc(C(=O)Nc4cc(C(=O)NCCC(=N)N)n(C)c4)n(C)c3)cn2C)cc1C(=O)NCCC(=N)N` gave a TGI of 86.1 µM.
As to `CC1(C)N=C(N)N=C(N)N1c1ccc(OCCCCNC(=O)Nc2cccc(S(=O)(=O)F)c2)c(Cl)c1`, the GI50 is 3.21 µM and the TGI was over 100 µM.
With `O=C(c1ccccc1)c1ccc2nc3n(c2c1)C(c1c(Cl)cccc1Cl)SC3` (stereo not drawn), the TGI is over 100 µM.
`CCCCCC(/C=C/[C@@H]1[C@@H](C(O)CCCCCC(=O)OC)C(=O)C[C@H]1O[Si](C)(C)C(C)(C)C)OCOCCOC` (stereo partly drawn) registered a TGI of 46.5 µM.
Same read-out and setting: as for `COc1ccc(/C=N/n2c(Cc3ccccc3)n[nH]c2=O)cc1`, the figure is over 100 µM.
On to `O=S(=O)(NCCCNc1nccc(-c2c(-c3cccc(F)c3)nc3occn23)n1)c1cccc2ccccc12`, for which the GI50 was over 100 µM and the TGI was over 100 µM.
In turn, `CC(=O)c1c(O)c2c([nH]c1=O)CCCC2` returned a TGI of 51.3 µM.
For the compound `Nc1ccn([C@@H]2S[C@H](CO)[C@@H](O)[C@@H]2F)c(=O)n1`, the GI50 is 1.02 µM and the TGI is over 100 µM.
As for `O=C(O)C1=C(C(=O)O)Oc2ccccc2O1`, the TGI was over 100 µM.
On the same count and under the same terms, the same measure for `O=S(=O)(/N=C(\NO)Nc1ccc(Cl)cc1)c1cc(S(=O)(=O)c2ccccc2)cs1`: 41.5 µM.
Still for that read-out and setting: as for `CN1CC[C@]23c4c5ccc(O)c4OC2c2[nH]ncc2C[C@H]3[C@H]1C5` (stereo partly drawn), the figure is over 100 µM; as for `O=[N+]([O-])c1ccc(/C=C\c2ccc3c(c2)OCO3)c([N+](=O)[O-])c1`, 41.6 µM; as for `N#C[C@H](C(=O)c1ccccc1F)c1nc2ccccc2[nH]1`, over 100 µM.
For `CC1=NNC(=O)[C@H]2[C@H]1CCC1[C@@H]2CC[C@]2(C)[C@@H](O)CC[C@@H]12` (stereo partly drawn), the TGI is over 100 µM.
Consider `O=C(CN(/C=C/C(=O)C(F)(F)F)c1ccccc1)c1ccc(F)cc1`, for which the GI50 was 22.3 µM and the TGI turned out to be 78.5 µM.
For `CC1=NN(c2nc(N)nc(/C=C\c3ccccc3)n2)C(C)(C)C1`, the GI50 is 11.1 µM and the TGI is 25.5 µM.
The corresponding values for `Cc1ccc(O)cc1Nc1ccnc2cc(-c3ccccn3)ccc12` are 0.911 µM and 5.05 µM.
The corresponding values for `CCc1c(C#N)c(SC(C(N)=O)c2ccccc2)nc(N2CCC(N)CC2)c1C#N` (stereo not drawn) are 14.7 µM and 29.6 µM.
The compound `O=C1CC(=O)NC(=NN2C(=O)/C(=C/c3ccc(Cl)cc3)N=C2c2ccccc2)N1` displayed a TGI of 61.7 µM.
Still for that read-out and setting: the same measure for `CCCC(=O)OC1C(C2COC(C)(C)O2)OC2OC(C)(C)OC21` (stereo not drawn): over 100 µM.
Consider `CCc1ccc(C2=NN(c3ccc(S(C)(=O)=O)cc3)C(=O)CC2)cc1`, for which the GI50 is 3.05 µM and the TGI was over 100 µM.
Compound `CC1(CCCCO)C=CC(S(=O)(=O)c2ccccc2)CC1` (stereo not drawn) had a TGI of 20.1 µM.
The same measure, in the same setting: the same measure for `CC1=C2CC(C)(C)CC(=O)C2(C)CCC1=O` (stereo not drawn): over 100 µM.
For the compound `Oc1ccc(-c2[nH]c3ccccc3c2-c2nc3ccccc3o2)cc1`, the GI50 is 4.87 µM and the TGI amounted to 18.7 µM.
The corresponding values for `Nc1n[nH]c2ccc([C@@H]3Nc4c(F)cc5[nH]ncc5c4[C@H]4C5CCC(C5)[C@@H]34)cc12` (stereo partly drawn) are 0.671 µM and over 58.3 µM.
Taken in the same sequence, the figures for `CCOC(=O)C1=C(C)N(Cc2ccc(Cl)cc2Cl)[C@]2(C#N)C(O)=C(Cl)C(Cl)=C(O)[C@]12C#N` were over 100 µM and over 100 µM.
Taken in the same sequence, the figures for `CCN(CC)CCCNc1c2ccc(Cl)cc2nc2ccc(OC)cc12` were 0.0602 µM and 3.65 µM.
With `C/C(=N\Nc1nc2ccccc2n1C)c1ccc2ccccc2n1`, the TGI came out at 9.72 µM.
The same measure, in the same setting: the same measure for `COc1ccc2c3c(c(C(=O)O)oc13)C(CCC(=O)O)CC2` (stereo not drawn): over 100 µM.
The same measure, in the same setting: as for `CSc1nc(C)cc(=O)n1C1OC(COC(C)=O)C(OC(C)=O)C(OC(C)=O)C1OC(C)=O` (stereo not drawn), the figure is over 100 µM.
The same measure, in the same setting: as for `CC1=C(C(=O)CC(=O)C(=O)Nc2ccccc2C)Sc2ccccc2N1`, the figure is over 100 µM.
`CN(c1ccc(NC(=O)NCCN2CCOCC2)cc1)c1ccnc(Nc2ccc(CS(C)(=O)=O)cc2)n1`: the GI50 was over 25 µM and the TGI is over 25 µM.
Regarding `CCN(CC)Cc1cc(Nc2cc(C(F)(F)F)c(C#N)c3nc4ccccc4n23)ccc1O`, the GI50 is 3.22 µM and the TGI is 13.4 µM.
Taken in the same sequence, the figures for `Nc1c(C(=O)Nc2ccccn2)sc2nc3c(cc12)CCCCCC3` were 2.58 µM and 16.6 µM.
On to `O=C(CCC(=O)C1Cc2ccccc2C1=O)Nc1cccc(C(F)(F)F)c1` (stereo not drawn), for which the TGI is over 100 µM.
In the case of `CC(=O)O[C@H]1C[C@H]2[C@@H]([C@H](OC(C)=O)C[C@@H]3CC4(CC[C@@]32C)OOC2(CCCCC2)OO4)[C@@H]2CC[C@H]([C@H](C)CCC(=O)O)[C@@]12C`, the TGI stood at 26.9 µM.
As to `COC(=O)c1ccc2c(c1)C(=O)c1c-2n(CCCCl)c(=O)c2cc(OC)c(OC)cc12`, the GI50 was over 100 µM and the TGI was over 100 µM.
In turn, `Cc1cc(C)c(S(=O)(=O)N(CCCN)OCCCN)c(C)c1` displayed a TGI of over 100 µM.
The same measure, in the same setting: the same measure for `Cc1c(C)c2ccc(OC(C)C(=O)O)cc2oc1=O` (stereo not drawn): over 100 µM; for `O=c1[nH]c(=S)[nH]c2c(C3OC(CO)C(O)C3O)nsc12` (stereo not drawn): over 100 µM.

For the origin of these results see PubChem BioAssay (NCI).
